# The supplement of paper PMC10126150
# Sequences with one replicate were seen in a single cluster, so their values are uncertain.
# System: ATP
# Assay: switch fluorescence ratio, 500 uM ATP over buffer (Cy3 cluster intensity, sum of 5 cycles each) (fold (ratio)); higher = stronger signal-on switching upon ATP binding; sequences stand for … in TCGTCGGCAGCGTCAGATGTGTATAAGAGACAGTTTTTTTTTTTTTTTTTTTTTTTTT…TC
# Settings: aptamer strand: ATP DNA aptamer (quencher-CACCTGGGGGAGTATTGCGGAGGAAGG + anchor), 100 nM annealed; ATP concentration: 500 uM; one replicate
# Procedure, shortened: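 Clusters with intensities outside 100-1000 RFU were excluded. The remaining Cy3-labelled switching-strand clusters on a modified Illumina MiSeq flow-cell had been annealed to 100 nM quencher-labelled ATP aptamer and imaged in selection buffer, then after 15 min with 500 uM ATP at 22 °C, for five cycles separated by NaOH stripping and re-annealing. The fluorescence ratio, averaged per switch-domain sequence, is each cluster's summed target-cycle Cy3 intensity over its summed buffer-cycle Cy3 intensity.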
# 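Note: ATP exposure 15 min at 22 °C before imaging.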
row,Sequence,switch fluorescence ratio
1,GATGACATGA,1.02
2,GATGACATGG,1.02
3,GATGACGGTT,0.971
4,GATGAGTCCG,1.17
5,GATGAGTGCG,1.05
6,GATGATGTTA,0.934
7,GATGATTTAG,0.997
8,GATGCACAGC,1.08
9,GATGCAGGAA,1.13
10,GATGCATTGT,1.05
11,GATGCCAGAA,1.01
12,GATGCCTGAT,0.993
13,GATGCGCATT,1.02
14,GATGCGCGCT,0.946
15,GATGCTACG,1.03
16,GATGCTATCG,0.948
17,GATGCTCACA,1.02
18,GATGCTCACT,0.976
19,GATGCTCCTG,1.02
20,GATGCTGCAT,1.01
21,GATGGAAGCT,1.12
22,GATGGAGAGC,1.02
23,GATGGCCTGT,1
24,GATGGCGTGT,1.01
25,GATGGCTA,1.03

row,Sequence,switch fluorescence ratio
1,GATGGGCTGG,0.972
2,GATGGGCTTA,1.04
3,GATGGGTA,1.05
4,GATGGTACGT,1.03
5,GATGGTGGGT,1.02
6,GATGTGCTGC,1.01
7,GATTAACTGA,1.03
8,GATTAATTAT,1.03
9,GATTACTAAC,1.16
10,GATTAGAAAA,0.997
11,GATTAGAACT,1.02
12,GATTAGGAGG,0.984
13,GATTATCTTA,0.992
14,GATTATGGG,0.997
15,GATTATTGCG,0.994
16,GATTCAAGTT,0.987
17,GATTCCTATT,1.04
18,GATTCGCCGG,0.966
19,GATTCGGGAT,1.12
20,GATTCTATTA,1.01
21,GATTGACTTC,0.995
22,GATTGAGTG,0.981
23,GATTGCAAAA,0.931
24,GATTGCATAG,1.01
25,GATTGCCAGC,0.975

row,Sequence,switch fluorescence ratio
1,GATTGCGGGG,0.977
2,GATTGCTTGG,1
3,GATTGGGCGC,0.978
4,GATTGTCTGT,1.01
5,GATTTACTTC,1.01
6,GATTTCAAGG,1.01
7,GATTTCATTA,0.979
8,GATTTCGGTG,1
9,GATTTCTTGA,1.01
10,GATTTGCCTT,0.98
11,GATTTGCGTG,1.02
12,GATTTGCTA,1.01
13,GATTTGGGCT,0.989
14,GATTTGTGCG,0.971
15,GATTTGTTAA,1.04
16,GATTTTAGCT,0.975
17,GATTTTCGAC,0.991
18,GATTTTGAGA,0.939
19,GATTTTTGAA,0.973
20,GCAAAACAAT,1
21,GCAAACAGAC,1.04
22,GCAAACCACT,1.03
23,GCAAACGG,1.05
24,GCAAACTCGA,1.29
25,GCAAATGTCT,1.01

row,Sequence,switch fluorescence ratio
1,GCAACCATGA,0.997
2,GCAACCGGGG,1.09
3,GCAACCTGCA,1.06
4,GCAACGACGT,0.982
5,GCAACTACAA,1.09
6,GCAACTCCA,1.41
7,GCAACTGGGA,1.03
8,GCAAGGAGCT,1.05
9,GCAAGGGAGG,0.995
10,GCAAGTTCTT,0.985
11,GCAATAAAAG,0.985
12,GCAATAACCG,1.26
13,GCAATAAGGA,1.19
14,GCAATACTTG,6.1
15,GCAATAGCTG,1.27
16,GCAATCCGTG,1.14
17,GCAATGACCG,1.19
18,GCAATGGCTG,1.11
19,GCAATGGTTT,1.08
20,GCAATGTAAG,0.994
21,GCAATGTCGC,1.07
22,GCAATTACCT,1.48
23,GCAATTGGAC,1.77
24,GCAATTTAAG,0.99
25,GCACAAAAAC,1.05

row,Sequence,switch fluorescence ratio
1,GCACAAGAGA,1.03
2,GCACCAGACC,1.1
3,GCACCCAGCG,1.36
4,GCACCGATAA,1.22
5,GCACGATTAA,1.05
6,GCACGGAACC,1.28
7,GCACGGAGGT,1.09
8,GCACTATTGC,1.03
9,GCACTGCCCA,1.06
10,GCACTGCCGC,1.15
11,GCACTGTGAT,1.01
12,GCACTTATAC,2.12
13,GCACTTTCTG,0.967
14,GCACTTTTAC,1.31
15,GCAGAAAATA,0.98
16,GCAGAATG,0.978
17,GCAGACAGGT,0.998
18,GCAGACCGAA,1.01
19,GCAGATGTT,1.01
20,GCAGCATATG,1.22
21,GCAGCGTCA,1.13
22,GCAGCTTAGC,1.02
23,GCAGCTTGGG,1.03
24,GCAGGACGCC,1.29
25,GCAGGACTCA,2.5

row,Sequence,switch fluorescence ratio
1,GCAGGAGCTC,1.01
2,GCAGGAGGCA,0.991
3,GCAGGGAGGT,0.999
4,GCAGGGCGAT,1.02
5,GCAGGGGCAT,0.985
6,GCAGGGTTTT,0.986
7,GCAGGTAATT,0.98
8,GCAGGTACGA,1.15
9,GCAGGTATGA,1.03
10,GCAGGTGAA,1.58
11,GCAGTACGCT,1.18
12,GCAGTCCCTT,0.97
13,GCAGTCTATT,0.977
14,GCAGTGACTT,1.05
15,GCAGTGGTGC,1.02
16,GCAGTGTGTT,1.01
17,GCAGTTTCGT,0.966
18,GCAGTTTGCT,0.968
19,GCATAAATAC,1.43
20,GCATACACTG,1.12
21,GCATACCTCA,1.13
22,GCATAGGTGT,1.39
23,GCATATAAGC,1.02
24,GCATATGCAC,1.04
25,GCATATGGTG,1

row,Sequence,switch fluorescence ratio
1,GCATCACCGG,1.01
2,GCATCCAATG,0.999
3,GCATCCCACT,1.05
4,GCATCCGTAT,1.04
5,GCATCGACTG,1.05
6,GCATCGAGTC,0.971
7,GCATCGGAGG,1.03
8,GCATCGGCTC,1.03
9,GCATCGTCTG,1.01
10,GCATGAGACA,1.01
11,GCATGAGTGG,0.972
12,GCATGATCAT,0.997
13,GCATGCGTCC,1
14,GCATGGTTGT,0.963
15,GCATGTTTAT,0.961
16,GCATGTTTGC,1.01
17,GCATTACAAC,1.23
18,GCATTCACGG,1.13
19,GCATTCATCC,1.29
20,GCATTCGCGA,1.26
21,GCATTCTGG,0.995
22,GCATTGAACC,1.05
23,GCATTGCTAG,1.03
24,GCATTGGACG,1.03
25,GCATTTAATA,1.11

row,Sequence,switch fluorescence ratio
1,GCATTTCCTC,1.17
2,GCATTTCGGG,0.977
3,GCATTTGCGT,1
4,GCATTTTATG,1.03
5,GCCAAAGGAA,1.01
6,GCCAACAGGT,1.26
7,GCCAACCTGG,0.998
8,GCCAAGGGGA,1
9,GCCAAGGGTG,1.22
10,GCCAATACAT,1.2
11,GCCAATTAAC,1.13
12,GCCACCCTTG,0.978
13,GCCACCTGGA,0.993
14,GCCAGAAGCG,1
15,GCCAGAGGGC,1.04
16,GCCAGGCGGC,1.03
17,GCCAGTAACA,0.995
18,GCCAGTGGAC,1.02
19,GCCAGTTCTG,0.992
20,GCCATAAAAA,0.971
21,GCCATAACAG,0.957
22,GCCATAGGCA,0.987
23,GCCATCACTT,0.985
24,GCCATCAGTT,1.02
25,GCCATGAACA,1.04
